Test results published in article PMC4336329 (PLoS ONE, 2015).
Hit rate of the full screen: of about 310,000 compounds, about 14,000 (4.5%) showed an effect of 50% or more. Effects have a minus sign here. The list shows a part of the results.

Molecular target: human ether-à-go-go-related gene (hERG) potassium channel (human, UniProt Q12809)
Assay: primary screen, population patch clamp on CHO cells stably expressing hERG
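Also: peak tail current of the secondary pulse compared with the same well before compound.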

human ether-à-go-go-related gene (hERG) potassium channel, sequence (Q12809 whole entry, looked up): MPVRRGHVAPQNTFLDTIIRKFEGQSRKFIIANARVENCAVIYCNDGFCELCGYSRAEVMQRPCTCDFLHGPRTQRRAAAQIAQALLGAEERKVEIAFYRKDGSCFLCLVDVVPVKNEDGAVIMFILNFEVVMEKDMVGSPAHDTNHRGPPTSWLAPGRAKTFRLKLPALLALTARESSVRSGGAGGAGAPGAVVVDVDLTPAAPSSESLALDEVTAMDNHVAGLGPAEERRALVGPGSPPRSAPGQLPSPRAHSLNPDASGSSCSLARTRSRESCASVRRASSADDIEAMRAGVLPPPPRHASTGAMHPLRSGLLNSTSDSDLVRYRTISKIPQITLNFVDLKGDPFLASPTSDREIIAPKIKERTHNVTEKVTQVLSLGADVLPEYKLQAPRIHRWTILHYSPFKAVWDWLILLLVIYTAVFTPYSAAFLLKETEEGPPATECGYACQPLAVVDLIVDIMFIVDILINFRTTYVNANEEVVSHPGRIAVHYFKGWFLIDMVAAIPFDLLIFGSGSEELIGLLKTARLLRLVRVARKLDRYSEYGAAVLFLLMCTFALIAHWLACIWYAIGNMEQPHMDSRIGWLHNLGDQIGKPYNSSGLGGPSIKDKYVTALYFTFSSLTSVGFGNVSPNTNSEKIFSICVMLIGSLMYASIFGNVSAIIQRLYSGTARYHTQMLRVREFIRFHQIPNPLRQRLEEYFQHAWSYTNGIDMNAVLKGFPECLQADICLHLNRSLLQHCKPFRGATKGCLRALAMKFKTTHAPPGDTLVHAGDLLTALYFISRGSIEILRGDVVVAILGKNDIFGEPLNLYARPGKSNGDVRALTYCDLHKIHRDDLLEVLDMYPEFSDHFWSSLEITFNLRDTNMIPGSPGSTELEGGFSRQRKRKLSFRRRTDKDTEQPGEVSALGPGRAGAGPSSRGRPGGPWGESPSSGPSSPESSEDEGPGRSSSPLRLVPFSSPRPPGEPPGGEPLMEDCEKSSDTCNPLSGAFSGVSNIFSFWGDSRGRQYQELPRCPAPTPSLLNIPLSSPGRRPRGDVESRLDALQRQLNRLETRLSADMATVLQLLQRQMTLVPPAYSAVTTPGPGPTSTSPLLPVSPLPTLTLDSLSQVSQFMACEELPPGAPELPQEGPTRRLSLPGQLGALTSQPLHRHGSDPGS

SMILES	hERG current change (%, negative = inhibition) at 10uM [%]
Cl.Fc1ccccc1Nc1nc(Cl)nc(Cl)n1	7.69
CCC(=O)Oc1ccc(-c2nc(-c3cccnc3)no2)cc1	12.7
O=C1CC(C(=O)N2CCN(c3ccccc3O)CC2)CN1Cc1ccccc1 (stereo not shown)	-39.8
C=CCNc1cnn(-c2ccc(C)cc2)c(=O)c1Cl	-12.7
COc1ccc(C(=O)NCC2OCCc3ccccc32)cc1 (stereo not shown)	-4.5
CCSc1nc2sc3c(c2c(=O)[nH]1)CC(C)(C)OC3	19.1
Cc1cc(C)n(C(=O)c2c([N+](=O)[O-])c(C)nn2C)n1	19.3
COc1ccc(NC(=O)c2ccc(Cl)nc2)cc1S(=O)(=O)N1CCOCC1	-10.5
COC(=O)C1=C(N)Oc2cc(C)n(C)c(=O)c2C1c1ccc(Cl)c(Cl)c1 (stereo not shown)	20.3
O=C(NCc1ccco1)c1cccn2c(=O)c3sccc3nc12	-68.4
O=CN1CCN(c2ncnc3c2nnn3Cc2c(F)cccc2Cl)CC1	6.42
O=C(Nc1nccs1)c1ccccc1[N+](=O)[O-]	-3.75
COc1ccc(NC2CC(=O)N(c3cccc([N+](=O)[O-])c3)C2=O)cc1 (stereo not shown)	-10.6
O=C(N/N=C/c1cccc([N+](=O)[O-])c1O)c1cccs1	-14.7
CCOc1ccccc1-n1nnnc1SC(C)C(=O)OC (stereo not shown)	3.98
COc1ccc2oc(=O)cc(CN3CCOCC3)c2c1	18.3
CN(C)C(CNC(=O)c1cccc(C(F)(F)F)c1)c1ccco1 (stereo not shown)	-11.8
O=c1[nH]c(=O)n(Cc2ccccc2Cl)c(O)c1/C=C1/C=CC=N1	37.3
Cc1ccc(C2(c3ccc(C)cc3)CC2C(=O)NCc2cccnc2)cc1 (stereo not shown)	8.65
CCOC(=O)c1ccc(NC(=O)c2nc[nH]c2C(=O)N(C)Cc2ccccc2)cc1	-11.1
NS(=O)(=O)c1ccc(CCNC(=O)C2CCCN(S(=O)(=O)c3cccnc3)C2)cc1 (stereo not shown)	-4.22
Cc1cc([N+](=O)[O-])nn1CCC(=O)NC1CCCCCC1	15.7

SMILES	hERG current change (%, negative = inhibition) at 10uM [%]
O=C(NCCc1csc(-c2cccnc2)n1)c1cccc(Cl)c1	-17.7
COC(=O)C1=C(c2ccccc2OCc2ccccc2)C[C@@H]2CC[C@H]1N2C(=O)NCc1ccc(OC)c(OC)c1	-0.237
COc1ccc(N(CC(=O)N2CCN(Cc3ccc4c(c3)OCO4)CC2)S(=O)(=O)c2ccc(F)cc2)cc1	-84.6
C/C(CC(=O)N(C(C)C)C(C)C)=N\NC(=O)c1ccccc1Br	14.5
NS(=O)(=O)c1ccc(NC=C2C(=O)OC3(CCCCC3)OC2=O)cc1	3.45
O=c1cc(N2CCc3ccccc3C2)[nH]c(=O)n1C1CCCCC1	13.6
Cc1nc(/N=C\N(C)C)sc1C(=O)Nc1ccccc1	5.79
CCOC(=O)c1cc2c(=O)n3ccccc3nc2n(CC2CCCO2)c1=NC(=O)/C=C/c1ccccc1 (stereo not shown)	-35.7
COc1ccc(NC(=S)N2CCCC2)cc1OC	9.97
CC(=O)Cc1nsc(NC(=O)c2ccccc2)n1	14.9
CCN1CCN(Cc2nnc(-c3ccccc3)o2)CC1	-0.608
CC(C)Oc1cc(NC(=O)CS(=O)CC(=O)N(C)C)c(Cl)cc1Cl (stereo not shown)	1.76
CCCOC(=O)c1ccc(NC(=O)c2ccc(Br)o2)cc1	-19.3
CC(=O)c1c(C)[nH]c(C(=O)OCC(=O)N2CC(C)OC(C)C2)c1C (stereo not shown)	20.7
CC(=O)N(Cc1ccccc1)c1c(N)nc(N)[nH]c1=O	12.7
C/C(=N/NS(=O)(=O)c1ccc(Cl)cc1)c1cccc(NC(=O)c2ccncc2)c1	18.9
Cc1c(N2C(=O)/C(=C\c3ccccc3O)SC2=S)c(=O)n(-c2ccccc2)n1C	30.5
CC(C)/C=C/CN1CCCC(N2CCN(c3cccc(Cl)c3)CC2)C1 (stereo not shown)	-50.7
O=C(NCc1ccccc1)C1C(=O)N(Cc2ccccc2)C(=O)C1C1(O)CCCC1 (stereo not shown)	2.87
CCN(C(=O)CSc1nc2ccccc2o1)c1c(N)n(Cc2ccccc2)c(=O)[nH]c1=O	-17.1
COc1cccc(C=NCCCN=Cc2cccc(OC)c2O)c1O	10.6
O=C(Cn1nnc(-c2ccccc2NC(=O)c2cccs2)n1)Nc1ccccc1	8.79

SMILES	hERG current change (%, negative = inhibition) at 10uM [%]
Cc1ccc(N2C(=O)CCSC23C(=O)Nc2ccccc23)cc1 (stereo not shown)	-6
O=C(COC(=O)c1ccc(Cl)c(S(=O)(=O)N2CCCCC2)c1)NCC1CCCCC1	-9.88
CCn1c(SCC(=O)NCc2ccco2)nc2c1c(=O)n(C)c(=O)n2C	11.2
Cc1nc(C)c(C(=O)N(c2ccccc2F)C(C(=O)NCC2CCCO2)c2ccccc2)s1 (stereo not shown)	8.94
CCOc1ccccc1OCCC(=O)OCC(=O)Nc1c(C)nn(-c2ccccc2)c1C	1.41
CC1CCc2nc(NC(=O)CN3CCN(c4ccccc4)CC3)sc2C1 (stereo not shown)	-6.29
COc1ccc(S(=O)(=O)N2CCC(C(=O)N[C@@H](C)C(=O)NCc3ccccc3OC)CC2)cc1	-2.2
C=CCN1C(=O)C(CC(=O)Nc2ccccc2)N(Cc2ccccn2)C1=S (stereo not shown)	-3.29
Cn1c(=O)c2c(nc(Cl)n2CC(=O)NC2(C#N)CCCCC2)n(C)c1=O	4.92
CCOc1ccc(/C=C/C(=O)Nc2ccc(OC)cc2[N+](=O)[O-])cc1	7.64
COc1ccccc1-c1cn[nH]c1-c1ccc(OCc2ccc(F)cc2)cc1O	5.24
O=[N+]([O-])c1ccc(-c2c[nH]c(=S)[nH]2)cc1	-13
O=C(C1=C[C@@H](c2ccc3c(c2)OCO3)C[C@@H](OCCCCO)O1)N1CCOCC1	7.64
O=C(CSc1ncccn1)N/N=C/c1ccc(OC2CSC2)cc1	-15.8
CSc1cccc(CN2CCC(Oc3cccc(C(=O)N4CCCC4)c3)CC2)c1	-44.4
Cc1cccc(N2C(=O)C(Oc3ccc(Cl)cc3Cl)C2C=O)c1C (stereo not shown)	-31.9
O=C(NC(=S)NCCC1=CCCCC1)c1ccco1	5.07
COc1ccc2c(C)c(CCC(=O)NC3CC3)c(=O)oc2c1C	14.4
COc1ccccc1C(c1c(N)n(C)c(=O)n(C)c1=O)C(C)[N+](=O)[O-] (stereo not shown)	-0.426
CCOC(=O)N1CCN(C(=O)CSc2nc(CC)nc3c2c(=O)n(C)c(=O)n3C)CC1	-14.1
CC(NS(=O)(=O)c1ccc(Br)s1)c1ccccc1 (stereo not shown)	8.81
CN(C)S(=O)(=O)c1ccc(Cl)c(C(=O)NCc2ccco2)c1	-2.3

SMILES	hERG current change (%, negative = inhibition) at 10uM [%]
Clc1ccccc1/C=N/c1cc(-c2ccccc2)nn1-c1ccccc1	13.7
O=C(Nc1ncc2c(n1)-c1ccccc1OC2)c1ccc(Cl)cc1Cl	11.8
CCN(CC)CCN(C(=O)c1ccc(N2C(=O)CCC2=O)cc1)c1nc2cc3c(cc2s1)OCCO3.Cl	-27.6
Cc1nc2ccc(NC(=O)COc3ccccc3F)cc2s1	0.868
CC(=O)NN1C(=O)c2ccccc2NC1c1ccccc1O (stereo not shown)	10.9
CCN(CC)C(=O)c1ncn(Cc2ccccc2)c1C(=O)N(CC)CC	11.2
O=C(Oc1ccc(N2C(=O)CCC2=O)cc1)c1ccco1	1.56
CSc1cccc(NC(=O)CNC(=O)c2ccc3c(c2)OCO3)c1	-16
COc1ccccc1NC(=O)N1CCCC(CNC(=O)c2ccccc2Cl)C1 (stereo not shown)	9.65
COc1ncccc1-c1nnn(-c2ccc(Cl)c(Cl)c2)n1	12.4
Fc1ccc(C2=CC(c3cccs3)n3nnnc3N2)cc1 (stereo not shown)	20.3
Cc1ccc(C)c(OCc2cc(C(=O)NC(c3ccccn3)C(F)(F)F)no2)c1 (stereo not shown)	12.5
Cc1c(NC(NC(=O)CC(C)C)C(Cl)(Cl)Cl)c(=O)n(-c2ccccc2)n1C (stereo not shown)	9.87
O=C(Cn1[nH]c(=O)c2ccccc2c1=O)OCC(=O)N(Cc1ccccc1)Cc1ccccc1	4.4
CS(=O)(=O)N(Cc1ccccc1)c1ccc(C(=O)Nc2ccc3c(c2)OCO3)cc1	2.68
c1ccc(Cn2nnnc2C(c2cccs2)N2CCSCC2)cc1 (stereo not shown)	-7.67
O=c1[nH]nc(SCc2ccccc2)c(=O)[nH]1	4.95
COc1ccc(Cl)cc1NC(=O)CN(C)C(=O)c1sc2ccccc2c1Cl	2.45
O=C(C[n+]1ccccc1)N/N=C/c1ccc(F)cc1.[Cl-]	6.49
c1ccc(Nc2ccnc(Nc3ccccc3)n2)cc1	-3.77
O=C(Nc1cccnc1Cl)c1noc2c1CCc1ccccc1-2	16.6
O=C(NC(=S)Nc1ccc(NC(=O)c2cccs2)cc1)c1ccc([N+](=O)[O-])cc1	-25.9
